Measurements taken from the supplement of paper PMC3334620.
In all, about 33,000 sequences were measured (“E-score (-0.5 to 0.5)”: median about -0.054, highest 2% from about 0.39 on). The list shows a part of the results.

Target: Ylr278c (UniProt Q05854)
Test: PBM E-score (8-mer binding enrichment) (E-score (-0.5 to 0.5)); higher = stronger / more preferred TF binding; most listed sequences are background and not binding sites
Settings: protein concentration: 200 nM; construct: GST-DNA-binding domain
In short: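 Universal all-10-mer Agilent arrays, double-stranded by primer extension on fresh or once-stripped slides, were probed with about 100-200 nM GST-tagged yeast transcription factors made by PURExpress. Fluorescent anti-GST detected bound protein, and masliner normalised the scans. E-scores from the Universal PBM Analysis Suite were given to each ungapped eight-base word pooled with its reverse complement.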

| Sequence | PBM E-score |
| --- | --- |
| ATTCAACC | -0.00677 |
| ACAGTAAG | -0.13 |
| ATCTCCAA | -0.0722 |
| CCGGAAGC | 0.369 |
| TAACTGCA | -0.22 |
| CTACAATA | 0.0333 |
| CGCTCGTA | 0.0511 |
| AAGTGAGA | -0.0754 |
| GCTACAAC | 0.0303 |
| TAGCGGGA | 0.0736 |
| ATTCTCTC | -0.00407 |
| ATCATCAA | -0.0898 |
| TCGATGAA | -0.11 |
| GCGGTGAC | 0.0764 |
| TAAGGCCA | -0.0843 |
| CTACGCGC | 0.0969 |
| GCGATTGA | -0.208 |
| ACAGTTCT | -0.0371 |
| CGAGCAAG | -0.139 |
| TCTGCGAA | -0.264 |
| ACGTGTCA | -0.295 |
| ACTCAGTA | 0.0212 |

| Sequence | PBM E-score |
| --- | --- |
| GACTCAGC | -0.135 |
| CCACAAGC | -0.28 |
| CAACGCCG | 0.318 |
| CCGTGTAA | 0.143 |
| CTACTCAA | -0.107 |
| AAGGCACC | 0.0287 |
| GCGGGGCA | 0.213 |
| CAGCTTTC | -0.0673 |
| AACAGAAG | -0.113 |
| GCATCTAC | -0.0171 |
| CTGCTCTC | -0.074 |
| GACGACCC | -0.0612 |
| CGCCGTAC | 0.163 |
| ACTCCGAG | 0.478 |
| ACCTCGGG | 0.0925 |
| GAGGGTAA | -0.0202 |
| ACTCAATG | -0.0999 |
| GTTTTATA | 0.0498 |
| ACGATTCT | -0.127 |
| ACAAAACC | 0.148 |
| GACAGATC | 0.0953 |
| AACTCCCT | -0.072 |

| Sequence | PBM E-score |
| --- | --- |
| CATTTATC | -0.156 |
| TCAAATAA | -0.0503 |
| ATTTCTCA | -0.0965 |
| ATGGGTTC | -0.204 |
| AGGGTATA | -0.00042 |
| ACTGTAGA | -0.16 |
| CGGGGTAC | 0.313 |
| CAGGTCGC | -0.101 |
| CAGCGTAC | -0.0331 |
| CTCCTTTC | 0.00105 |
| AAGCTTTA | -0.205 |
| GACCCAAC | -0.0747 |
| CCAAGGCA | -0.027 |
| ACCGTGTC | 0.102 |
| ACACTTCC | 0.0865 |
| AATGTCGC | 0.00556 |
| GGGTCGAC | 0.126 |
| CTCCGGCA | 0.469 |
| GGTCGCAA | 0.162 |
| GCGGGGGA | 0.177 |
| ATCACTTG | -0.233 |
| CCATCACC | -0.0277 |

| Sequence | PBM E-score |
| --- | --- |
| ATATAGGA | -0.06 |
| GCCTATCA | -0.183 |
| ATGTGATC | -0.126 |
| CGTATAAA | 0.182 |
| CCTAAAGA | -0.163 |
| GTAATCGA | -0.102 |
| AGTGGCTA | -0.259 |
| ACGAACAC | -0.0143 |
| TGGAAACA | -0.165 |
| GAGATTCA | 0.027 |
| AGGCCTTA | -0.233 |
| TATTATCA | -0.0793 |
| CAATGACG | -0.136 |
| ATGTAAGC | 0.0127 |
| CATGCTTA | -0.0818 |
| TCTAATCA | 0.0217 |
| GGATTTTA | 0.283 |
| CTACGTAG | -0.0861 |
| AAGCGTCT | -0.176 |
| AAATCCTG | -0.102 |
